Laboratory results taken from the supplement of paper PMC12217912.
The other results are listed elsewhere or left out. The full chains were built here from the parent and the listed change. Values near 0.05 are background.

B1: TEV protease; numbered along this chain (parent)
chain: MGESLFKGPRDYNPISSSICHLTNESDGHTTSLYGIGFGPFIITNKHLFRRNNGTLVVQSLHGVFKVKDTTTLQQHLVDGRDMIIIRMPKDFPPFPQKLKFREPQREERICLVTTNFQTKSMSSMVSDTSCTFPSGDGIFWKHWIQTKDGQCGSPLVSTRDGFIVGIHSASNFTNTNNYFTSVPKNFMELLTNQEAQQWVSGWRLNADSVLWGGHKVFMVKPEEPFQPVKEATQL
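Note: Bxb1 expression induced with 0.2% (w/v) L-rhamnose at OD600 near 0.5, cultures sampled hourly, flipped fraction per protease–substrate barcode pair counted by paired-end Illumina sequencing.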

Variants of: B1
Assay: raw area under fraction-flipped curve 0-4 h after induction (AUC4h, not background-subtracted), DNA-recorder readout of cleavage of the substrate (dimensionless); higher = more cleavage of the substrate by the protease variant
Conditions: temperature: 34 °C; time window: 0-4 h after rhamnose induction
With MGESLFKGPRDYNPISSSICHLTNESDGHTTSLYGIGFGPFIITNKHLFRRNNGTLVVQSLHGVFKVKDTTTLQQHLVDGRDMIIIRMPKDFPPFPQKLKFREPQRDERICLVTTNFQTKSMSSMVSDTSCTFPSGDGIFWKHWIQTKDGQCGSPLVSTRDGFIVGIHSASNFTNTNNYFTSVPKNFMELLTNQEAQQWVSGWRLNADSVLWGGHKVFMVKPEEPFQPVKEATQL [E107D] the “area with substrate HNLYFQS” value was 0.0647, the “area with substrate INLYFQS” value was 0.0438 and the “area with substrate LNLYFQS” value was 0.0612. For the same variant, the “area with substrate PNLYFQS” value was 0.0401, the “area with substrate TNLYFQS” value was 0.0724 and the “area with substrate VNLYFQS” value was 0.0622. For the same variant, the “area with substrate WNLYFQS” value was 0.0612.
With MGESLFKGPRDYNPISSSICHLTNESDGHTTSLYGIGFGPFIITNKHLFRRNNGTLVVQSLHGVFKVKDTTTLQQHLVDGRDMIIIRMPKDFPPFPQKLKFREPQREEDICLVTTNFQTKSMSSMVSDTSCTFPSGDGIFWKHWIQTKDGQCGSPLVSTRDGFIVGIHSASNFTNTNNYFTSVPKNFMELLTNQEAQQWVSGWRLNADSVLWGGHKVFMVKPEEPFQPVKEATQL [R109D] the “area with substrate HNLYFQS” value was 0.0845, the “area with substrate INLYFQS” value was 0.0501 and the “area with substrate KNLYFQS” value was 0.0603. For the same variant, the “area with substrate LNLYFQS” value was 0.0795, the “area with substrate PNLYFQS” value was 0.0652 and the “area with substrate QNLYFQS” value was 0.0646. The “area with substrate SNLYFQS” value was 0.0621, the “area with substrate TNLYFQS” value was 0.064 and the “area with substrate VNLYFQS” value was 0.0485. For the same variant, the “area with substrate WNLYFQS” value was 0.0536.
In the case of MGESLFKGPRDYNPISSSICHLTNESDGHTTSLYGIGFGPFIITNKHLFRRNNGTLVVQSLHGVFKVKDTTTLQQHLVDGRDMIIIRMPKDFPPFPQKLKFREPQREERACLVTTNFQTKSMSSMVSDTSCTFPSGDGIFWKHWIQTKDGQCGSPLVSTRDGFIVGIHSASNFTNTNNYFTSVPKNFMELLTNQEAQQWVSGWRLNADSVLWGGHKVFMVKPEEPFQPVKEATQL [I110A], the “area with substrate HNLYFQS” value is reported as 0.0638, the “area with substrate INLYFQS” value is reported as 0.0646 and the “area with substrate RNLYFQS” value is reported as 0.0559.
For MGESLFKGPRDYNPISSSICHLTNESDGHTTSLYGIGFGPFIITNKHLFRRNNGTLVVQSLHGVFKVKDTTTLQQHLVDGRDMIIIRMPKDFPPFPQKLKFREPQREERICLVTTNIQTKSMSSMVSDTSCTFPSGDGIFWKHWIQTKDGQCGSPLVSTRDGFIVGIHSASNFTNTNNYFTSVPKNFMELLTNQEAQQWVSGWRLNADSVLWGGHKVFMVKPEEPFQPVKEATQL [F117I], the “area with substrate HNLYFQS” value was 0.0709, the “area with substrate MNLYFQS” value was 0.0489 and the “area with substrate TNLYFQS” value was 0.058. The “area with substrate WNLYFQS” value was 0.0596.
With MGESLFKGPRDYNPISSSICHLTNESDGHTTSLYGIGFGPFIITNKHLFRRNNGTLVVQSLHGVFKVKDTTTLQQHLVDGRDMIIIRMPKDFPPFPQKLKFREPQREERICLVTTNFQKKSMSSMVSDTSCTFPSGDGIFWKHWIQTKDGQCGSPLVSTRDGFIVGIHSASNFTNTNNYFTSVPKNFMELLTNQEAQQWVSGWRLNADSVLWGGHKVFMVKPEEPFQPVKEATQL [T119K] the “area with substrate HNLYFQS” value was 0.0565, the “area with substrate LNLYFQS” value was 0.0855 and the “area with substrate SNLYFQS” value was 0.056. The “area with substrate TNLYFQS” value was 0.0711, the “area with substrate WNLYFQS” value was 0.068 and the “area with substrate YNLYFQS” value was 0.0641.
For MGESLFKGPRDYNPISSSICHLTNESDGHTTSLYGIGFGPFIITNKHLFRRNNGTLVVQSLHGVFKVKDTTTLQQHLVDGRDMIIIRMPKDFPPFPQKLKFREPQREERICLVTTNFQTKSMSSFVSDTSCTFPSGDGIFWKHWIQTKDGQCGSPLVSTRDGFIVGIHSASNFTNTNNYFTSVPKNFMELLTNQEAQQWVSGWRLNADSVLWGGHKVFMVKPEEPFQPVKEATQL [M125F], the “area with substrate HNLYFQS” value was 0.0438, the “area with substrate INLYFQS” value was 0.0523 and the “area with substrate KNLYFQS” value was 0.0862. The “area with substrate LNLYFQS” value was 0.0659, the “area with substrate TNLYFQS” value was 0.097 and the “area with substrate VNLYFQS” value was 0.0708. The “area with substrate WNLYFQS” value was 0.0582.
With MGESLFKGPRDYNPISSSICHLTNESDGHTTSLYGIGFGPFIITNKHLFRRNNGTLVVQSLHGVFKVKDTTTLQQHLVDGRDMIIIRMPKDFPPFPQKLKFREPQREERICLVTTNFQTKSMSSMVNDTSCTFPSGDGIFWKHWIQTKDGQCGSPLVSTRDGFIVGIHSASNFTNTNNYFTSVPKNFMELLTNQEAQQWVSGWRLNADSVLWGGHKVFMVKPEEPFQPVKEATQL [S127N] the “area with substrate HNLYFQS” value was 0.0172, the “area with substrate INLYFQS” value was 0.0625 and the “area with substrate KNLYFQS” value was 0.0724. The “area with substrate MNLYFQS” value was 0.0626, the “area with substrate NNLYFQS” value was 0.061 and the “area with substrate PNLYFQS” value was 0.0699. The “area with substrate SNLYFQS” value was 0.0724, the “area with substrate TNLYFQS” value was 0.0739 and the “area with substrate WNLYFQS” value was 0.0769. For the same variant, the “area with substrate YNLYFQS” value was 0.0529.
With MGESLFKGPRDYNPISSSICHLTNESDGHTTSLYGIGFGPFIITNKHLFRRNNGTLVVQSLHGVFKVKDTTTLQQHLVDGRDMIIIRMPKDFPPFPQKLKFREPQREERICLVTTNFQTKSMSSMVSDTSCTFFSGDGIFWKHWIQTKDGQCGSPLVSTRDGFIVGIHSASNFTNTNNYFTSVPKNFMELLTNQEAQQWVSGWRLNADSVLWGGHKVFMVKPEEPFQPVKEATQL [P134F] the “area with substrate HNLYFQS” value was 0.0577, the “area with substrate NNLYFQS” value was 0.0414 and the “area with substrate PNLYFQS” value was 0.0714. For the same variant, the “area with substrate QNLYFQS” value was 0.0529, the “area with substrate SNLYFQS” value was 0.0608 and the “area with substrate TNLYFQS” value was 0.0612. The “area with substrate WNLYFQS” value was 0.0611.
For MGESLFKGPRDYNPISSSICHLTNESDGHTTSLYGIGFGPFIITNKHLFRRNNGTLVVQSLHGVFKVKDTTTLQQHLVDGRDMIIIRMPKDFPPFPQKLKFREPQREERICLVTTNFQTKSMSSMVSDTSCTFPSGGGIFWKHWIQTKDGQCGSPLVSTRDGFIVGIHSASNFTNTNNYFTSVPKNFMELLTNQEAQQWVSGWRLNADSVLWGGHKVFMVKPEEPFQPVKEATQL [D137G], the “area with substrate HNLYFQS” value was 0.0582, the “area with substrate INLYFQS” value was 0.0726 and the “area with substrate KNLYFQS” value was 0.0685. The “area with substrate LNLYFQS” value was 0.0689, the “area with substrate NNLYFQS” value was 0.0581 and the “area with substrate PNLYFQS” value was 0.0557. The “area with substrate QNLYFQS” value was 0.0726, the “area with substrate SNLYFQS” value was 0.0733 and the “area with substrate TNLYFQS” value was 0.0591. The “area with substrate VNLYFQS” value was 0.0633, the “area with substrate WNLYFQS” value was 0.0621 and the “area with substrate YNLYFQS” value was 0.0666.
For MGESLFKGPRDYNPISSSICHLTNESDGHTTSLYGIGFGPFIITNKHLFRRNNGTLVVQSLHGVFKVKDTTTLQQHLVDGRDMIIIRMPKDFPPFPQKLKFREPQREERICLVTTNFQTKSMSSMVSDTSCTFPSGWGIFWKHWIQTKDGQCGSPLVSTRDGFIVGIHSASNFTNTNNYFTSVPKNFMELLTNQEAQQWVSGWRLNADSVLWGGHKVFMVKPEEPFQPVKEATQL [D137W], the “area with substrate HNLYFQS” value was 0.0762, the “area with substrate SNLYFQS” value was 0.056 and the “area with substrate WNLYFQS” value was 0.0581.
For MGESLFKGPRDYNPISSSICHLTNESDGHTTSLYGIGFGPFIITNKHLFRRNNGTLVVQSLHGVFKVKDTTTLQQHLVDGRDMIIIRMPKDFPPFPQKLKFREPQREERICLVTTNFQTKSMSSMVSDTSCTFPSGDIIFWKHWIQTKDGQCGSPLVSTRDGFIVGIHSASNFTNTNNYFTSVPKNFMELLTNQEAQQWVSGWRLNADSVLWGGHKVFMVKPEEPFQPVKEATQL [G138I], the “area with substrate HNLYFQS” value was 0.0624, the “area with substrate KNLYFQS” value was 0.0487 and the “area with substrate NNLYFQS” value was 0.0359. For the same variant, the “area with substrate TNLYFQS” value was 0.0483 and the “area with substrate WNLYFQS” value was 0.0549.
